The RNAGym collection of RNA variant scans (doi:10.7554/elife.90254)
Read counts are not given, so values of variants with three or more changes are uncertain.

B1: LINE1-full (parent)
chain: UACGUAGGUGGUUUUCCCCUGAUAGUGCUAAGGGGGCCUGGAAGUUUGGACUGGGCAGAGCUCAACACAGCGUGGCAAAGUGGCUGUGGCUAGACUGCCUCUCUGGAUUCCUCGUCACUCAGCAGGGCAUCUCUGAGAGAAAUGCC

Variants of: B1
Assay: self-cleavage, relative activity (ratio to wild type); higher = more cleavage; in vitro, sequencing; the parent is a self-cleaving ribozyme

Variant | self-cleavage
UACGUAGGUGGUUUUCCCCUGUUAGUGCUAAGGGGGCCUGGAAGUUUGGACUGGGCAGAGCUCAACACAGCGUGGCAAAGUGGCUGUGGCUAGACUGCCUCCCGGGAUUCCUCGUCACUCAGUAGGGCAUCUCUGAGAGAAAUGCC [A22U U102C U104G C123U] | 1
UACGUAGGUGGUUUUCCCCUGUUAGUGCUAAGGGGGCCUGGAAGUUUGGACUGGGCAGAGCUCAACACAGCGUGGCAAAGUGGCUGUGGCUAGACUGCCUCUCUGGAUUCCUCGCCACUCAGCAGGGCCUCUCUGAGAGAAAUGCC [A22U U115C A129C] | 1.12
UACGUAGGUGGUUUUCCCCUGUUAGUGCUAAGGGGGCCUGGAAGUUUGGACUGGGCAGAGCUCAACACAGCGUGGCAAAGUGGCUGUGGCUAGACUGCCUCUCUGGAUUCCUCGUCACUCAGCAGGGCAUCCCUGAGGGAAAUGCC [A22U U132C A138G] | 1.31
UACGUAGGUGGUUUUCCCCUGUUAGUGCUAAGGGGGCCUGGAAGUUUGGACUGGGCAGAGCUCAACACAGCGUGGCAAAGUGGCUGUGGCUAGACUGCCUCUCUGGAUUCCUCGUCACUCAGCAGGGCAUCCCUGAGAGAAACGCC [A22U U132C U143C] | 1.24
UACGUAGGUGGUUUUCCCCUGAAGGUGCUAAGGGGGCCUGGAAGUUUGGACAGGGCAGAGCUCAACACAGCGUGGCAAAGUGGCUGUGGCUAGACUGCCUCUCUGGAUUCCUCGUCACUCAGCAGGGCAUCUCUGGGAGAAAUGCC [U23A A24G U52A A136G] | 1.58
UACGUAGGUGGUUUUCCCCUGAAAGUGCUAAGGGGGCCUGGGAGUUUGGACUGGGCAGAGCUCAACACAGCGUGGCAAAGUGGCUGUGGCUAGACUGCCUCUCUGGAUUCCUCGCCACUCAGCAGGGCAUCUCUGAGAGAAACGCC [U23A A42G U115C U143C] | 1.67
UACGUAGGUGGUUUUCCCCUGAAAGUGCUAAGGGGGCCUGGAAGUUUGGGCUGGGCAGAGCUCAACACAGCGUGGCAAAGUGGCUGUGGCUUGACUGCCUCUCUGGAUUCCUCGUCACUCAGCAGGGCAUCUCUGAGAGAAAUGCC [U23A A50G A92U] | 0.57
UACGUAGGUGGUUUUCCCCUGAAAGUGCUAAGGGGGCCUGGAAGUUUGGUCUGGGCAGAGCUCAACACAGCGUGGCAAAGAGGCUGUGGCUAGACUGCCACUCUGGAUUCCUCGUCACUCAGCAGGGCAUCUCUGAGAGAAAUGCC [U23A A50U U81A U100A] | 1.23
UACGUAGGUGGUUUUCCCCUGAAAGUGCUAAGGGGGCCUGGAAGUUUGGACUGGGCGGAGCUCAACACAGCGUGGUAAAGUGGCUGUGGCUAGACUGCCUCUCUGGAUUCCUCGUCACUCGGCAGGGCAUCUCUGAGAGAAAUGCC [U23A A57G C76U A121G] | 1.62
UACGUAGGUGGUUUUCCCCUGAAAGUGCUAAGGGGGCCUGGAAGUUUGGACUGGGCAGAGCUCGACACAGCGUGGCAAAGUGGCUGUGGCUAGACUGCCCCUCUGGAUUCCUCGUCACUCAGCAGGGCAUCUCUGAGAGAAAUGCC [U23A A64G U100C] | 0.35
UACGUAGGUGGUUUUCCCCUGAAAGUGCUAAGGGGGCCUGGAAGUUUGGACUGGGCAGAGCUCAACACUGCGUGGCAAAGUGGCUGUGGCUAGACUGCCUCUCCGGAUUCCUCGUCACUCAGCAGGGCAUCUCUGAGGGAAAUGCC [U23A A69U U104C A138G] | 0
UACGUAGGUGGUUUUCCCCUGAAAGUGCUAAGGGGGCCUGGAAGUUUGGACUGGGCAGAGCUCAACACAGCGUGGCAGAGUGGCUGUGGCUAGAUUGCCUCUCUGGAUUCCUCGUCACUCAGCAGGGCAUCUCUGAGAGAAAUGCC [U23A A78G C95U] | 0.2
UACGUAGGUGGUUUUCCCCUGAAAGUGCUAAGGGGGCCUGGAAGUUUGGACUGGGCAGAGCUCAACACAGCGUGGCAGAGUGGCAGUGGCUAGACUGCCUCUCUGGAUUCCUCGUCACUCAGCAGGGCAUCUCUGAGAGAAAUGCC [U23A A78G U85A] | 0.08
UACGUAGGUGGUUUUCCCCUGAAAGUGCUAAGGGGGCCUGGAAGUUUGGACUGGGCAGAGCUCAACACAGCGUGGCAAAGUGGCUGUGGCUGGACUGCCUCUCUGGAUUCCUCGUCACUCAGCAGUGCAUCUCUGAGAGAAAUGCC [U23A A92G G126U] | 0.14
UACGUAGGUGGUUUUCCCCUGAAAGUGCUAAGGGGGCCUGGAAGUUUGGACUGGGCAGAGCUCAACACAGCGUGGCAAAGUGGCUGUGGCUAGACUGCCUCUCUGGAUUCCUCGUCACUCAGCGUGGCAUCUCUGAGAGAAAUGCC [U23A A124G G125U] | 1.53
UACGUAGGUGGUUUUCCCCUGAAAGUGCUAAGGGGGCCUGGAAGUUUGGACUGGGCAGAGCUCAACACAGCGUGGCAAAGUGGCUGUGGCUAGACUGCCUCUCUGGAUUCCUCGUCACUCAGCAGGGCAUCUCUGAGAGUGAUGCC [U23A A140U A141G] | 1.98
UACGUAGGUGGUUUUCCCCUGAAAGUGCUAAGGGGGCCUGGAAGUUUGGACUGGGCAGAGCUCAACACAGCGUGGCAAAGUGGAUGUGGCUAGACUGCCUCUCUGGAUUCCUCGUCACUCAGCAGGGCAUCUCUGAGAGGAAUGCC [U23A C84A A140G] | 0.07
UACGUAGGUGGUUUUCCCCUGAAAGUGCUAAGGGCGCCUGGAAGUUUGGACUGGGCAGAGCUCAACACAGCGUGGCAAAGUGGCUGUGGCUAGACUGCCUCUCUGGAUUCCUCGUCACUCAGCAGGGCAUGUCUGGGAGAAAUGCC [U23A G35C C131G A136G] | 0.76
UACGUAGGUGGUUUUCCCCUGAAAGUGCCAAGGGGGCCUGGAAGUUUGGACUGGGCAGAGCUCAACACAGCGUGGCAAAGUGGCUGUGGCUAGACUGCCUCUCUGGAUUCCUCGUCACUCAGCAGGGCAUCUCAGAGAGAAAUGCC [U23A U29C U134A] | 1.3
UACGUAGGUGGUUUUCCCCUGAAAGUGCUAAGGGGGCCCGGAAGUUUGGACUGGGCAGAGCUCAACACAGCGUGGCAAAGUGGCUGUGGCUAGACUGCCUCUCUGGUUUCCUCGUCACUCAGCAGAGCAUCUCUGAGAGAAAUGCC [U23A U39C A107U G126A] | 0.67

Variant | self-cleavage
UACGUAGGUGGUUUUCCCCUGAAAGUGCUAAGGGGGCCUGGAAGAUUGGACUGGGCAGAGCUCAACACAGCGUGGCAAAGUGGCUGUGGCUAGACAGCCUCUCUGGAUUCCUCGUCACUCAGCAGGGCAUCUCUGAGAGAAAUGCC [U23A U45A U96A] | 0.07
UACGUAGGUGGUUUUCCCCUGAAAGUGCUAAGGGGGCCUGGAAGUAUGGACUGGGCAGAGCUCAACACAGCGUGGCAAAGUGGCUGUGGCUAGACUGCCUCUCUGGAUUCCCCGUCACUCAGCAGGGCAUCUCUGAGAGAAAUGCC [U23A U46A U112C] | 1
UACGUAGGUGGUUUUCCCCUGAAAGUGCUAAGGGGGCCUGGAAGUUGGGACUGGGCAGAGCUCAACACAGCGUGGCAAAGUGGCUGUGGCUAGACAGCCUCUCUGGAUUCCUCGUCACUCAGCAGGGCACCUCUGAGAGAAAUGCC [U23A U47G U96A U130C] | 0.08
UACGUAGGUGGUUUUCCCCUGAAAGUGCUAAGGGGGCCUGGAAGUUUGGACUGGGCAGAGCCCAACGCAGCGUGGCAAAGUGGCUGUGGCUAGACUGCCUCUCAGGAUUCCUCGUCACUCAGCAGGGCAUCUCUGAGAGAAAUGCC [U23A U62C A67G U104A] | 0.27
UACGUAGGUGGUUUUCCCCUGAAAGUGCUAAGGGGGCCUGGAAGUUUGGACUGGGCAGAGCUCAACACAGCGCGGCAUAGUGGCUGUGGCUAGGCUGCCUCUCUGGAUUCCUCGUCACUCAGCAGGGCAUCUCUGAGAGAAAUGCC [U23A U73C A78U A94G] | 0.38
UACGUAGGUGGUUUUCCCCUGAAAGUGCUAAGGGGGCCUGGAAGUUUGGACUGGGCAGAGCUCAACACAGCGCGGCAAAGUGGCUGUGGCUAGACUGCCUCUCUGGAUUCCUCGUCAUUCAGCAGGGCAUCUCUGAGAGAAAUGCC [U23A U73C C118U] | 1.01
UACGUAGGUGGUUUUCCCCUGAAAGUGCUAAGGGGGCCUGGAAGUUUGGACUGGGCAGAGCUCAACACAGCGCGGCAAAGUGGCCGUGGCUAUACUGCCUCUCUGGAUUCCUCGACACUCAGCAGGGCAUCUCUGGGAGAAAUGCC [U23A U73C U85C G93U U115A A136G] | 0.02
UACGUAGGUGGUUUUCCCCUGAAAGUGCUAAGGGGGCCUGGAAGUUUGGACUGGGCAGAGCUCAACACAGCGUGGCAAAGUGGCUGUGGCUAGACUGCCUCCCUGGAUUCCUCGUCACUCAGCAGGGCAUCUCUGAGUGAAAUGCC [U23A U102C A138U] | 1.26
UACGUAGGUGGUUUUCCCCUGACGAUGCUAAGGGGGCCUGGAAGUUUGGACAGGGCGGAGCUCAACACAGCGUGGCAAAGUGGCUGUGGCUAGACUGCCUCUCUGGAUUCCUCGUCACUCAGCAGGGCAUCUCUGAGAGAAAUGCC [U23C A24G G25A U52A A57G] | 0.68
UACGUAGGUGGUUUUCCCCUGACGGUGCUAAGGGGGCCUGGAAGUUUGGACUGGGCAGAGCUCAACACAGCGUGGCAAAGUGGCUGUGGCUAGACUGCCUCUCUGGAUUCCUCGUCACUCAGCAGGGCAUCUCAGAGAGAAAUGCC [U23C A24G U134A] | 1.11
UACGUAGGUGGUUUUCCCCUGACAGUGCUGAGGGGGCCUGGAAGUUUGGACUGGGCAGAGCUCAACACUGCGUGGCAAAGUGGCUGUGGCUAGACUGCCUCUCUGGAUUCCUCGUCACUCAGUAGGGCAUCUCUGAGAGAAAUGCC [U23C A30G A69U C123U] | 0.04
UACGUAGGUGGUUUUCCCCUGACAGUGCUGAGGGGGCCUGGAAGUUUGGACUGGGCAGAGCUCAACACAGCGUGGCAAAGUGGCUGUGGCUAGACUGCCUCUCUGGAUUCCUCGUCACUCAGCAGGGCAUCUCUGUGAGAAAUGCC [U23C A30G A136U] | 0
UACGUAGGUGGUUUUCCCCUGACAGUGCUAGGGGGGCCUGGAAGUUUGGACUGGGCAGAGCUCAACACAGCGUGGCAAAGUGGCUGUGGCUAGACUGUCUCUCUGGAUUCCUCGCCACUCAGCAGGGCAUCUCUGAGAGAAAUGCC [U23C A31G C98U U115C] | 1.49
UACGUAGGUGGUUUUCCCCUGACAGUGCUAUGGGGGCCUGGAAGUUUGGACUGGGCAGAGCUCAACACUGCGUGGCAAAGUGGCUGUGGCUAGACUGCCUCUCUGGAAUCCUCGUCACUCAGCAGGGCAUCUCUGAGAGAAAUGCC [U23C A31U A69U U108A] | 0.1
UACGUAGGUGGUUUUCCCCUGACAGUGCUAAGGGGGCCUGGCAGUUUGGACUGGGCUGAGCUCAACGCAGCGUGGCAAAGUGGCUGUGGCUAGACUGCCUCUCUGGAUUCCUCGUCACUCAGCAGGGCAUCUCUGAGAGAGAUGCC [U23C A42C A57U A67G A141G] | 0.74
UACGUAGGUGGUUUUCCCCUGACAGUGCUAAGGGGGCCUGGUAGUUUGGACUGGGCAGAGCUCAACACAGCGUGGCAAAGCGGCUGCGGCUAGACUGCCUCUCUGGAUUCCUCGUCACUCAGCAGGGCAUCCCUGAGAGAAAUGCC [U23C A42U U81C U87C U132C] | 0
UACGUAGGUGGUUUUCCCCUGACAGUGCUAAGGGGGCCUGGAGGUUUGGACUGGGCAGAGCUCAACCCAGCGUGGCAAAGUGGCUGUGGCUAGACUGCCUCUCUGGAUUCCUCGUCACCCAGCAGGGCAUCUCUGAGAGAAAUGCC [U23C A43G A67C U119C] | 0
UACGUAGGUGGUUUUCCCCUGACAGUGCUAAGGGGGCCUGGAGGUUUGGACUGGGCAGAGCUCAACACAGCGUGGCAAAGUGGCUGUGGCUAGGCUGCCUCUCUGGAUUCCUCGUCACUCAGCAGGGCAUCUCUGAGAGAAAUGCC [U23C A43G A94G] | 1.62
UACGUAGGUGGUUUUCCCCUGACAGUGCUAAGGGGGCCUGGAAGUUUGGGCAGGGCAGGGCUCAACACAGCGUGGCAAAGUGGCUGUGGCUAGACUGCCUCUCUGGAUUCCUCGUCACUCAGCAGGGCAUCUCUGAGAGAAACGCC [U23C A50G U52A A59G U143C] | 0
